# From the supplement of paper PMC8728848
# The list shows a part of the results.
# B1: P-Selectin (Homo sapiens), P16109 (protein)
# chain: MANCQIAILYQRFQRVVFGISQLLCFSALISELTNQKEVAAWTYHYSTKAYSWNISRKYCQNRYTDLVAIQNKNEIDYLNKVLPYYSSYYWIGIRKNNKTWTWVGTKKALTNEAENWADNEPNNKRNNEDCVEIYIKSPSAPGKWNDEHCLKKKHALCYTASCQDMSCSKQGECLETIGNYTCSCYPGFYGPECEYVRECGELELPQHVLMNCSHPLGNFSFNSQCSFHCTDGYQVNGPSKLECLASGIWTNKPPQCLAAQCPPLKIPERGNMTCLHSAKAFQHQSSCSFSCEEGFALVGPEVVQCTASGVWTAPAPVCKAVQCQHLEAPSEGTMDCVHPLTAFAYGSSCKFECQPGYRVRGLDMLRCIDSGHWSAPLPTCEAISCEPLESPVHGSMDCSPSLRAFQYDTNCSFRCAEGFMLRGADIVRCDNLGQWTAPAPVCQALQCQDLPVPNEARVNCSHPFGAFRYQSVCSFTCNEGLLLVGASVLQCLATGNWNSVPPECQAIPCTPLLSPQNGTMTCVQPLGSSSYKSTCQFICDEGYSLSGPERLDCTRSGRWTDSPPMCEAIKCPELFAPEQGSLDCSDTRGEFNVGSTCHFSCDNGFKLEGPNNVECTTSGRWSATPPTCKGIASLPTPGLQCPALTTPGQGTMYCRHHPGTFGFNTTCYFGCNAGFTLIGDSTLSCRPSGQWTAVTPACRAVKCSELHVNKPIAMNCSNLWGNFSYGSICSFHCLEGQLLNGSAQTACQENGHWSTTVPTCQAGPLTIQEASTSITAYKSEGESAEFSFPLNLGEESLQGELRWKAEKAPSSQSWITFSLKNQKVSVQKSTSNPKFQLSETLPLTLQIPQVSLQFAGSGNLTLTLDRGILYQEVNLVVMKVTQPDSNTLTCEVMGPTSPKMRLILKQENQEARVSRQEKVIQVQAPEAGVWQCLLSEGEEVKMDSKIQVLSKGLNSGGGSGGGTGGGDLAPQMLRELQETNAALQDVRELLRQQVKEITFLKNTVMECDACGLDRNLPPLAPLGPHPETLVKVKDAEDQLGARVGYIELDLNSGKILESFRPEERFPMMSTFKVLLCGAVLSRIDAGQEQLGRRIHYSQNDLVEYSPVTEKHLTDGMTVRELCSAAITMSDNTAANLLLTTIGGPKELTAFLHNMGDHVTRLDRWEPELNEAIPNDERDTTMPVAMATTLRKLLTGELLTLASRQQLIDWMEADKVAGPLLRSALPAGWFIADKSGAGERGSRGIIAALGPDGKPSRIVVIYTTGSQATMDERNRQIAEIGASLIKHWGPDYKDHDGDYKDHDIDYKDDDDKGPHHHHHH
# Legend:
# Assay in all cases: glycan array binding signal (z-score within array); higher = stronger binding
# Conditions in all cases: glycan notation: IUPAC condensed, linker removed
# [1] = molecular target: Gal(b1-4)GlcNAc(b1-6)GalNAc
# Summary of the method: (§1)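 Glycan array data were curated from 3228 arrays in the Consortium for Functional Glycomics database and kept only where the protein sequence was available. Glycan names were converted to IUPAC-condensed notation, and columns mapping to the same glycan were averaged. The binding signal is a within-array Z-score, averaged across arrays of the same protein sequence at different concentrations or buffers and across linkers. Negative Z-scores can be read as non-binding.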
# [2] = molecular target: Gal(b1-4)GlcNAc(b1-6)[Gal(b1-3)]GalNAc
# Summary of the method: as §1
# [3] = molecular target: Gal3S(b1-3)GalNAc
# Summary of the method: as §1
# [4] = molecular target: Gal3S(b1-3)GlcNAc
# Summary of the method: as §1
# [5] = molecular target: Gal3S(b1-3)[Fuc(a1-4)]GlcNAc
# Summary of the method: as §1
# [6] = molecular target: Gal3S(b1-4)Glc
# Summary of the method: as §1
# [7] = molecular target: Gal3S(b1-4)Glc6S
# Summary of the method: as §1
# [8] = molecular target: Gal3S(b1-4)GlcNAc
# Summary of the method: as §1
# [9] = molecular target: Gal3S(b1-4)GlcNAc6S
# Summary of the method: as §1
# [10] = molecular target: Gal3S(b1-4)[Fuc(a1-3)]Glc
# Summary of the method: as §1
# [11] = molecular target: Gal3S4S(b1-4)GlcNAc
# Summary of the method: as §1
# [12] = molecular target: Gal3S6S(b1-4)GlcNAc
# Summary of the method: as §1
# [13] = molecular target: Gal3S6S(b1-4)GlcNAc6S
# Summary of the method: as §1
# [14] = molecular target: Gal4S(b1-4)GlcNAc
# Summary of the method: as §1
# [15] = molecular target: Gal4S6S(b1-4)GlcNAc
# Summary of the method: as §1
# [16] = molecular target: Gal6S(b1-4)Glc
# Summary of the method: as §1
# [17] = molecular target: Gal6S(b1-4)Glc6S
# Summary of the method: as §1
# [18] = molecular target: Gal6S(b1-4)GlcNAc
# Summary of the method: as §1
# [19] = molecular target: Gal6S(b1-4)GlcNAc6S
# Summary of the method: as §1
# [20] = molecular target: GalNAc(a1-3)Gal
# Summary of the method: as §1
# [21] = molecular target: GalNAc(a1-3)GalNAc
# Summary of the method: as §1
# [22] = molecular target: GalNAc(b1-3)Gal
# Summary of the method: as §1
# [23] = molecular target: GalNAc(b1-3)Gal(a1-4)Gal(b1-4)GlcNAc
# Summary of the method: as §1
binder,measurement,setting,value
B1,glycan array binding signal (z-score),[1],-0.139
same,glycan array binding signal (z-score),[2],-0.315
same,glycan array binding signal (z-score),[3],-0.113
same,glycan array binding signal (z-score),[4],0.038
same,glycan array binding signal (z-score),[5],0.319
same,glycan array binding signal (z-score),[6],-0.16
same,glycan array binding signal (z-score),[7],0.778
same,glycan array binding signal (z-score),[8],0.035
same,glycan array binding signal (z-score),[9],0.313
same,glycan array binding signal (z-score),[10],0.089
same,glycan array binding signal (z-score),[11],0.146
same,glycan array binding signal (z-score),[12],0.645
same,glycan array binding signal (z-score),[13],4.08
same,glycan array binding signal (z-score),[14],-0.137
same,glycan array binding signal (z-score),[15],0.693
same,glycan array binding signal (z-score),[16],-0.075
same,glycan array binding signal (z-score),[17],1.88
same,glycan array binding signal (z-score),[18],0.026
same,glycan array binding signal (z-score),[19],1.19
same,glycan array binding signal (z-score),[20],-0.417
same,glycan array binding signal (z-score),[21],0.348
same,glycan array binding signal (z-score),[22],-0.362
same,glycan array binding signal (z-score),[23],-0.235
